Measurements: article PMC11696576, “Next generation thiazolyl ketone inhibitors of cytosolic phospholipase A2 α for targeted cancer therapy” (Nature Communications, 2025)

Columns and labels:
[1] = test system: CD3+ T-cells; test: viability of healthy T-cells, propidium iodide exclusion; type: cell-based; conditions: Figure 6c, listed as AVX420
Procedure: Data are the mean ± stdev of 3 biological replicates. […] Data are the mean ± stdev of 3 biological replicates.
(§1) Propidium iodide exclusion was used to assess cell death by flow cytometry. After treatment, the cells were washed once with PBS and stained with 1.4 μg/mL propidium iodide (PI) for 5 min before quantification of PI negative and positive cells using a CytoFLEX flow cytometer (California, United States). An example of the gating strategy to assess PI staining can be found in Fig. S8c. […]
The propidium iodide exclusion assay was used to assess vi-ability of ungated PBMCs treated with AVX420 at the indicated doses for 24 hours .
(§2) Data are the mean ±stdev from 8 biological replicates (1-16 µM) and 5 biological rep- […]
(§3) iodide exclusion in CD3+ lymphocytes (T-cells). Cells appearing in the bottom right quadrant are PI-negative (live) T-cells while cells in the top right quadrant are PI-posi- […]
(§4) (1 picture or pasted object on this page, not shown here)

[2] = test system: PBMCs; test: viability of PBMCs (CTG and propidium iodide exclusion); type: cell-based, human; conditions: PBMC 72H; 2 µM; rep1-5; listed as AVX420
Procedure: as §1
cells. a. CTG assays were used to assess viability of PBMCs isolated from human blood after treatment with vehicle control (DMSO) or AVX420 at the indicated doses for either (i) 24 hours or (ii) 72 hours. Data are the mean ±stdev of 4 or 5 biological replicates respectively. b. The propidium iodide exclusion assay was used to assess vi-ability of ungated PBMCs treated with AVX420 at the indicated doses for 24 hours .
as §2, §3, §4

CCCCCCCOc1ccc(OCC(=O)c2nc(C(=O)OC)cs2)cc1 [GK420]
PI Negative ([1]; 0.5 µM): 97 (2×), 98, 96, 91, 89 [columns of one line]
PI Negative ([1]; 1 µM): 96, 98, 97 (2×), 91, 89 [columns of one line]
PI Negative ([1]; 4 µM): 97 (2×), 98, 95, 96, 90, 89, 94 [columns of one line]
PBMC viability relative to 0 µM = 100 (Figure S8a) [2]: 111, 89, 93 (2×), 105 [columns of one line]

The source holds more than one record for some entries. The other results are left out here. An entry can have further records. Results that share an entry seem to repeat one measurement; a mean can stand among them. Marks such as (2×) stand for listed records that agree.
